Where a chain is given by its changes, count along the chain named. The list shows a part of the results.

The chains are these.
T1: RBFOX1 RRM (Homo sapiens, UniProt Q9NWB1 109-208)
T1 sequence: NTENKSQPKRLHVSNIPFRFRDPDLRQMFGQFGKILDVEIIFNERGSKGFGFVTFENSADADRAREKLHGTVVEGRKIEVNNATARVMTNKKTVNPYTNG

B1: GCCAGGG (DNA:RNA)
RNA: GGGAGACCGGAAUUCAGAUUGUCCGCCAGGGUUAAAUCCCGUCGUAGCCACCA
DNA 1: CAATCTGAATTCCGGTCTCCC
DNA 2: TGGTGGCTACGACGGGATT
B2: UGGGAGC (DNA:RNA)
RNA: B1 RNA with G25U, C26G, C27G, A28G, G29A, G31C
DNA 1: CAATCTGAATTCCGGTCTCCC
DNA 2: TGGTGGCTACGACGGGATT
B3: UUAGAAC (DNA:RNA)
RNA: GGGAGACCGGAAUUCAGAUUGUCCUUAGAACUUAAAUCCCGUCGUAGCCACCA
DNA 1: CAATCTGAATTCCGGTCTCCC
DNA 2: TGGTGGCTACGACGGGATT
B4: CUAACAU (DNA:RNA)
RNA: B3 RNA with U25C, G28A, A29C, C31U
DNA 1: CAATCTGAATTCCGGTCTCCC
DNA 2: TGGTGGCTACGACGGGATT
B5: GCCGCUC (DNA:RNA)
RNA: B1 RNA with A28G, G29C, G30U, G31C
DNA 1: CAATCTGAATTCCGGTCTCCC
DNA 2: TGGTGGCTACGACGGGATT
B6: GGGAUUA (DNA:RNA)
RNA: B1 RNA with C26G, C27G, G29U, G30U, G31A
DNA 1: CAATCTGAATTCCGGTCTCCC
DNA 2: TGGTGGCTACGACGGGATT
B7: GAGCCCU (DNA:RNA)
RNA: B1 RNA with C26A, C27G, A28C, G29C, G30C, G31U
DNA 1: CAATCTGAATTCCGGTCTCCC
DNA 2: TGGTGGCTACGACGGGATT
B8: GCCAUGA (DNA:RNA)
RNA: B1 RNA with G29U, G31A
DNA 1: CAATCTGAATTCCGGTCTCCC
DNA 2: TGGTGGCTACGACGGGATT
B9: AGGACUC (DNA:RNA)
RNA: B1 RNA with G25A, C26G, C27G, G29C, G30U, G31C
DNA 1: CAATCTGAATTCCGGTCTCCC
DNA 2: TGGTGGCTACGACGGGATT
B10: UUCCAUG (DNA:RNA)
RNA: B3 RNA with A27C, G28C, A30U, C31G
DNA 1: CAATCTGAATTCCGGTCTCCC
DNA 2: TGGTGGCTACGACGGGATT
B11: ACGCAUC (DNA:RNA)
RNA: B3 RNA with U25A, U26C, A27G, G28C, A30U
DNA 1: CAATCTGAATTCCGGTCTCCC
DNA 2: TGGTGGCTACGACGGGATT
B12: CGGUUCG (DNA:RNA)
RNA: B1 RNA with G25C, C26G, C27G, A28U, G29U, G30C
DNA 1: CAATCTGAATTCCGGTCTCCC
DNA 2: TGGTGGCTACGACGGGATT
B13: ACCCUCG (DNA:RNA)
RNA: B1 RNA with G25A, A28C, G29U, G30C
DNA 1: CAATCTGAATTCCGGTCTCCC
DNA 2: TGGTGGCTACGACGGGATT
B14: GCUGAGG (DNA:RNA)
RNA: B1 RNA with C27U, A28G, G29A
DNA 1: CAATCTGAATTCCGGTCTCCC
DNA 2: TGGTGGCTACGACGGGATT
B15: UCACGCC (DNA:RNA)
RNA: B3 RNA with U26C, G28C, A29G, A30C
DNA 1: CAATCTGAATTCCGGTCTCCC
DNA 2: TGGTGGCTACGACGGGATT
B16: GACCCCA (DNA:RNA)
RNA: B1 RNA with C26A, A28C, G29C, G30C, G31A
DNA 1: CAATCTGAATTCCGGTCTCCC
DNA 2: TGGTGGCTACGACGGGATT
B17: AGUUAAC (DNA:RNA)
RNA: B3 RNA with U25A, U26G, A27U, G28U
DNA 1: CAATCTGAATTCCGGTCTCCC
DNA 2: TGGTGGCTACGACGGGATT
B18: CUAUCCA (DNA:RNA)
RNA: B3 RNA with U25C, G28U, A29C, A30C, C31A
DNA 1: CAATCTGAATTCCGGTCTCCC
DNA 2: TGGTGGCTACGACGGGATT
B19: AGCUCCU (DNA:RNA)
RNA: B1 RNA with G25A, C26G, A28U, G29C, G30C, G31U
DNA 1: CAATCTGAATTCCGGTCTCCC
DNA 2: TGGTGGCTACGACGGGATT
B20: UGCUUCU (DNA:RNA)
RNA: B1 RNA with G25U, C26G, A28U, G29U, G30C, G31U
DNA 1: CAATCTGAATTCCGGTCTCCC
DNA 2: TGGTGGCTACGACGGGATT
B21: GUGGACG (DNA:RNA)
RNA: B3 RNA with U25G, A27G, A30C, C31G
DNA 1: CAATCTGAATTCCGGTCTCCC
DNA 2: TGGTGGCTACGACGGGATT
B22: UAACUUC (DNA:RNA)
RNA: B3 RNA with U26A, G28C, A29U, A30U
DNA 1: CAATCTGAATTCCGGTCTCCC
DNA 2: TGGTGGCTACGACGGGATT
B23: UCCAUAU (DNA:RNA)
RNA: B1 RNA with G25U, G29U, G30A, G31U
DNA 1: CAATCTGAATTCCGGTCTCCC
DNA 2: TGGTGGCTACGACGGGATT
B24: GUUUAUA (DNA:RNA)
RNA: B3 RNA with U25G, A27U, G28U, A30U, C31A
DNA 1: CAATCTGAATTCCGGTCTCCC
DNA 2: TGGTGGCTACGACGGGATT
B25: UUCCUUU (DNA:RNA)
RNA: B3 RNA with A27C, G28C, A29U, A30U, C31U
DNA 1: CAATCTGAATTCCGGTCTCCC
DNA 2: TGGTGGCTACGACGGGATT
B26: GGGAUCU (DNA:RNA)
RNA: B1 RNA with C26G, C27G, G29U, G30C, G31U
DNA 1: CAATCTGAATTCCGGTCTCCC
DNA 2: TGGTGGCTACGACGGGATT
B27: CUGAAUC (DNA:RNA)
RNA: B3 RNA with U25C, A27G, G28A, A30U
DNA 1: CAATCTGAATTCCGGTCTCCC
DNA 2: TGGTGGCTACGACGGGATT
B28: CACAUGU (DNA:RNA)
RNA: B1 RNA with G25C, C26A, G29U, G31U
DNA 1: CAATCTGAATTCCGGTCTCCC
DNA 2: TGGTGGCTACGACGGGATT
B29: UGCAGUU (DNA:RNA)
RNA: B1 RNA with G25U, C26G, G30U, G31U
DNA 1: CAATCTGAATTCCGGTCTCCC
DNA 2: TGGTGGCTACGACGGGATT
B30: CGAUGCC (DNA:RNA)
RNA: B3 RNA with U25C, U26G, G28U, A29G, A30C
DNA 1: CAATCTGAATTCCGGTCTCCC
DNA 2: TGGTGGCTACGACGGGATT
B31: CCUUGCU (DNA:RNA)
RNA: B1 RNA with G25C, C27U, A28U, G30C, G31U
DNA 1: CAATCTGAATTCCGGTCTCCC
DNA 2: TGGTGGCTACGACGGGATT

The assay has as its target T1, RBFOX1 RRM. The experiment in a line: EMSA; HiTS-Eq, 1 nM pool, 10 min; buffer printed only for the single-RNA assays: 10 mM Tris pH 7.5, 150 mM NaCl, 3.4 mM EDTA, 0.001% NP-40, 30 C. Conditions: tags: His6 N-terminal (pET28a); label: 5' 32P. The gist of the method:
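Purified RbFox RRM, wild type or mutant, was incubated for 10 min in 50 µL with 1 nM of a 5′-radiolabelled RNA pool carrying 7 randomized nucleotides, whose flanks were annealed to DNA oligonucleotides, over a series of increasing protein concentrations. Unbound RNA was resolved on 8% native PAGE, cut out, reverse-transcribed, barcoded by PCR and sequenced on an Illumina HiSeq 2500. Relative association constants were derived from changes in read counts for each RNA species versus the control reaction and normalised to the cognate motif.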
(In EMSA bound probe runs differently from free probe, usually more slowly.)
As to B1, the binding signal is 0.0174 KA relative to UGCAUGU.

Consider B2, for which the binding signal is 0.0309 KA relative to UGCAUGU.

With B3, the binding signal was 0.012 KA relative to UGCAUGU.

Regarding B4, the binding signal is 0.000928 KA relative to UGCAUGU.

B5: the binding signal was 0.0146 KA relative to UGCAUGU.

Regarding B6, the binding signal was 0.0242 KA relative to UGCAUGU.

For B7, the binding signal was 0.00817 KA relative to UGCAUGU.

Regarding B8, the binding signal is 0.0124 KA relative to UGCAUGU.

Take B9: the binding signal is 0.0201 KA relative to UGCAUGU.

Turning to B10, the binding signal is 0.00664 KA relative to UGCAUGU.

B11: the binding signal was 0.00881 KA relative to UGCAUGU.

On to B12, for which the binding signal is 0.0103 KA relative to UGCAUGU.

Regarding B13, the binding signal was 0.00252 KA relative to UGCAUGU.

For the molecule B14, the binding signal is 0.0179 KA relative to UGCAUGU.

As to B15, the binding signal is 0.00712 KA relative to UGCAUGU.

In the case of B16, the binding signal is 0.000227 KA relative to UGCAUGU.

As to B17, the binding signal was 0.00286 KA relative to UGCAUGU.

For B18, the binding signal was 0.00102 KA relative to UGCAUGU.

As to B19, the binding signal is 0.00379 KA relative to UGCAUGU.

Consider B20, for which the binding signal was 0.0153 KA relative to UGCAUGU.

On to B21, for which the binding signal is 0.0135 KA relative to UGCAUGU.

As for B22, the binding signal was 0.0101 KA relative to UGCAUGU.

In the case of B23, the binding signal was 0.00233 KA relative to UGCAUGU.

On to B24, for which the binding signal is 0.00641 KA relative to UGCAUGU.

With B25, the binding signal is 0.00799 KA relative to UGCAUGU.

As to B26, the binding signal is 0.0381 KA relative to UGCAUGU.

B27: the binding signal is 0.00905 KA relative to UGCAUGU.

Turning to B28, the binding signal is 0.00636 KA relative to UGCAUGU.

With B29, the binding signal was 0.0159 KA relative to UGCAUGU.

As to B30, the binding signal is 0.012 KA relative to UGCAUGU.

In the case of B31, the binding signal was 0.0153 KA relative to UGCAUGU.
